Laboratory results from patent US6699719B2, “Biosensor arrays and methods” (Proteomic Systems, Inc., priority 1996, dated 2004).

Target: β-adrenergic subtype 1 Receptor (AR-β1) (Homo sapiens, UniProt P08588)
UniProt P08588, sequence (P08588 whole entry): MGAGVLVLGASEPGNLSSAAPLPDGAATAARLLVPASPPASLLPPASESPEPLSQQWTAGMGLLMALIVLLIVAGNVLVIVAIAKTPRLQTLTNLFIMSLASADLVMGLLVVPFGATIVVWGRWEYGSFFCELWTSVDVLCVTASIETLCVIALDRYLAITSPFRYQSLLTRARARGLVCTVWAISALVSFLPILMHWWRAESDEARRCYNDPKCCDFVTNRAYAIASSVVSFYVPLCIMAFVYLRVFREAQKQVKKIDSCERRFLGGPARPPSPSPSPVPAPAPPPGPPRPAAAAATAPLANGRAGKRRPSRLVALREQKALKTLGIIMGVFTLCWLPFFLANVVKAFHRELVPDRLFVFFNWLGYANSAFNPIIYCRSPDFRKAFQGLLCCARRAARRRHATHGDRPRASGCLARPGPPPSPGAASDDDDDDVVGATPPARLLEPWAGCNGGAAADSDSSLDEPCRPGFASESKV

Compound: Cc1ccc(OCC(O)C(C)NC(C)C)c2c1CCC2 (centres unmarked) [ICI118,551]
- fluorescent signal competed out (50 μM competitor, fluorescent ligand CGP12177 (FIG. 15)): approximately 30%
- BODIPY TMR CGP12177 fluorescence upon addition of ICI118,551 (AR-β1 corrals (FIG. 16)): only partially
